# PubChem BioAssay AID1745845 (National Center for Advancing Translational Sciences (NCATS), 2022)
# Screen size: about 360,000 compounds; about 2,600 (0.72%) were called active. This list was built around the results that the source calls inconclusive (neither active nor inactive); the mix of calls is not that of the screen. Calls follow the shape of the dose curve; as a rule, active = well fitted inhibition curve with a large enough effect; inconclusive = small, poorly fitted or top-dose-only effect; inactive = no such curve, though single readings can be large or run the other way. Potencies of inconclusive entries are doubtful fits and often do not repeat.
# Assay: Primary qHTS for Inhibitors of ATXN expression; also: nearly all actives have a fitted effect of over 55% in size
# Details: HEK-293 ATXN2-luciferase reporter, luminescence, 24 h; series mostly up to 57 µM
# Summary of the method: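 qHTS (up to 57 uM final) was run with 24 h compound exposure of reporter cells at 37 °C. Each well was multiplexed: SteadyGlo luminescence measured ATXN2-luciferase expression after a fluorogenic Gly-Phe-AFC viability readout (25 uM final).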
# Potency is read from the fitted curve at half-maximal effect; tags tell the direction and shape of the fitted curve.
row,Compound,Potency
1,CCN(Cc1ccccc1)S(=O)(=O)c1ccc(C(=O)Nc2nnc(C3CC3)o2)cc1,active: 20 µM
2,CCc1nc2c(OCc3ccc(C(F)(F)F)cc3)cccn2c1N(C)C(=O)c1ccc(C)cc1,"inconclusive: 25.1 µM [inhibitor, single point]"
3,Cc1cc(C)c(NC(=S)NC(NC(=O)c2ccccc2)C(Cl)(Cl)Cl)c(C)c1 (centres undefined),"inconclusive: 37.7 µM [inhibitor, single point]"
4,O=C(Sc1nnc(-c2ccccc2)o1)N1c2ccccc2Sc2ccccc21,"inconclusive: 31.6 µM [inhibitor, single point]"
5,O=c1oc(-c2ccccc2)cc(Cl)c1Cl,"inconclusive: 37.7 µM [inhibitor, single point]"
6,CCc1cccc(N2C(=O)CSC23C(=O)N(Cc2ccccc2F)c2ccccc23)c1 (centres undefined),"inconclusive: 39.8 µM [inhibitor, single point]"
7,COc1c(C(=O)NC(=S)Nc2nnn(C)n2)cc2ccccc2c1Br,inactive
8,CCn1c(=O)c(CCC(=O)N2CCOCC2)c(C)c2c(C)nn(-c3ccccc3)c21,"inconclusive: 17.8 µM [inhibitor, partial curve]"
9,CCCc1c(-c2ccc(Cl)cc2)ncn1CCc1ccccc1OC,"inconclusive: 31.6 µM [inhibitor, single point]"
10,Cc1ccc(NC(=O)CNC(=O)c2ccco2)cc1,inactive
11,CCC(C)(C)c1ccc(OCCCC[n+]2ccc(C)cc2)c(C(C)(C)CC)c1,active: 20 µM
12,CCc1ccccc1NC(=O)COC(=O)c1c(C)nsc1NC,"inconclusive: 3.98 µM [inhibitor, partial curve, poor fit]"
13,Cc1cc(C)c(NC(=O)Cn2nnc(C(=O)NCc3cccs3)c2N)c(C)c1,"inconclusive: 4.47 µM [inhibitor, partial curve, poor fit]"
14,CC(=O)N1CCCc2cc(S(=O)(=O)N3CCCC(C(=O)N4CCN(c5ccccc5F)CC4)C3)ccc21 (centres undefined),"inconclusive: 28.2 µM [inhibitor, single point]"
15,Fc1ccc(NC(=S)NN2CCOCC2)cc1Cl,inactive
16,Nc1nc2ccccc2n1/N=C/c1ccc([N+](=O)[O-])s1,"inconclusive: 5.32 µM [inhibitor, full curve, poor fit]"
17,Cc1nc2sc(C(c3ccco3)N3CCN(C(c4ccccc4)c4ccccc4)CC3)c(O)n2n1 (centres undefined),"inconclusive: 21.2 µM [inhibitor, partial curve, poor fit]"
18,CCN1C(=O)[C@@H]2[C@@H](c3ccc(SC4CCCCC4)cc3)N3CCCC[C@@]3(C(=O)OC)[C@@H]2C1=O,inactive
19,CCOC(=O)c1ccc(NC(=O)CC2Nc3cc(C)c(C)cc3NC2=O)cc1 (centres undefined),"inconclusive: 39.8 µM [inhibitor, single point]"
20,S=C(NCCC(c1ccccc1)c1ccccc1)Nc1cccc(Cl)c1,"inconclusive: 25.1 µM [inhibitor, single point]"

row,Compound,Potency
1,Cc1[nH]c(C=C2C(=O)Nc3ccccc32)c(C)c1CCC(=O)O,active: 1.09 µM
2,COc1ccc(C(c2nnnn2C2CCCCC2)N2CCN(C/C=C/c3ccccc3)CC2)cc1 (centres undefined),"inconclusive: 17.8 µM [inhibitor, single point]"
3,CCN(c1cccc(C)c1)S(=O)(=O)c1ccc2c(c1)CCCN2C(C)=O,inactive
4,COc1ccc2cc1Oc1ccc(cc1)C[C@H]1c3cc(c(OC)cc3CCN1C)Oc1c(OC)c(OC)cc3c1[C@@H](C2)N(C)CC3,"inconclusive: 35.5 µM [inhibitor, single point]"
5,O=C(c1ccc(C#Cc2ccccc2)o1)N1CCN(c2ccccn2)CC1,"inconclusive: 39.8 µM [inhibitor, single point]"
6,N#Cc1ccc(COC[C@H]2O[C@@H](n3c(NCc4ccc(Cl)c(Cl)c4)nc4c(N)ncnc43)[C@@H](O)[C@@H]2O)cc1,"inconclusive: 21.7 µM [inhibitor, partial curve]"
7,O=C(N/N=C/c1cccc2nccnc12)c1ccccc1O,"inconclusive: 31.6 µM [inhibitor, single point]"
8,CCCOc1ccc(F)cc1-c1cc(C(=O)Nc2ccc(OC)c(OC)c2)[nH]n1,"inconclusive: 31.6 µM [inhibitor, single point]"
9,COc1cccc(CN2C(=O)[C@@H]3Cc4c([nH]c5ccccc45)C(C)(C)N3C2=O)c1,"inconclusive: 39.8 µM [inhibitor, single point]"
10,CCN(CC)CCNC(=S)Nc1ccc2nc(N3CCN(CC)CC3)cc(C)c2c1,"inconclusive: 25.1 µM [inhibitor, partial curve, poor fit]"
11,C[C@@]12C(C[C@H](O)[C@@]34C[C@@H](CCC13)[C@@H](CO)C4=O)[C@](C)(C(=O)O)CC[C@@H]2O (some centres undefined),inactive
12,CCOC(=O)c1ccc(NC(=O)Cn2c(C)nc3c(sc(=S)n3CC)c2=O)cc1,inactive
13,C[C@@H]1CN([C@H](C)CO)C(=O)c2cc(NC(=O)C3CCCCC3)ccc2O[C@@H]1CN(C)Cc1ccc(C(F)(F)F)cc1,"inconclusive: 39.8 µM [inhibitor, single point]"
14,COC/C=C/C1=CC2=CC(=O)C(C)(OC(=O)c3cnc4ccccc4n3)C(=O)C2=CN1Cc1ccccc1 (centres undefined),"inconclusive: 39.8 µM [inhibitor, single point]"
15,O=C1C=CC(=O)N1N(c1ccccc1)c1ccccc1,"inconclusive: 39.8 µM [inhibitor, single point]"
16,C[C@H](NC(=O)c1[nH]cnc1C(=O)Nc1ccc(CNC(=O)OC(C)(C)C)cc1)C(=O)OC(C)(C)C,"inconclusive: 39.8 µM [inhibitor, single point]"
17,CS(=O)(=O)c1nc(-c2ccccc2)cc(-c2ccccc2)c1C#N,"inconclusive: 31.6 µM [inhibitor, single point]"
18,O=C(C1=C[C@@H](c2csc3ccccc23)C[C@@H](OCc2ccc(CO)cc2)O1)N1CCN(Cc2ccccc2)CC1,"inconclusive: 17.8 µM [inhibitor, single point]"
19,Cc1ccnc(NC(=O)C2CCN(S(=O)(=O)c3c(C)c(C)cc(C)c3C)CC2)c1,active: 7.94 µM
